From paper PMC4336329 (PLoS ONE, 2015)
About 2,200 (0.71%) of roughly 310,000 compounds showed an effect of 50% or more. Effects have a minus sign here. The list shows a part of the results.

molecular target: human ether-à-go-go-related gene (hERG) potassium channel (human, UniProt Q12809); assay: primary screen, population patch clamp on CHO cells stably expressing hERG
Sequence (Q12809 whole entry, looked up): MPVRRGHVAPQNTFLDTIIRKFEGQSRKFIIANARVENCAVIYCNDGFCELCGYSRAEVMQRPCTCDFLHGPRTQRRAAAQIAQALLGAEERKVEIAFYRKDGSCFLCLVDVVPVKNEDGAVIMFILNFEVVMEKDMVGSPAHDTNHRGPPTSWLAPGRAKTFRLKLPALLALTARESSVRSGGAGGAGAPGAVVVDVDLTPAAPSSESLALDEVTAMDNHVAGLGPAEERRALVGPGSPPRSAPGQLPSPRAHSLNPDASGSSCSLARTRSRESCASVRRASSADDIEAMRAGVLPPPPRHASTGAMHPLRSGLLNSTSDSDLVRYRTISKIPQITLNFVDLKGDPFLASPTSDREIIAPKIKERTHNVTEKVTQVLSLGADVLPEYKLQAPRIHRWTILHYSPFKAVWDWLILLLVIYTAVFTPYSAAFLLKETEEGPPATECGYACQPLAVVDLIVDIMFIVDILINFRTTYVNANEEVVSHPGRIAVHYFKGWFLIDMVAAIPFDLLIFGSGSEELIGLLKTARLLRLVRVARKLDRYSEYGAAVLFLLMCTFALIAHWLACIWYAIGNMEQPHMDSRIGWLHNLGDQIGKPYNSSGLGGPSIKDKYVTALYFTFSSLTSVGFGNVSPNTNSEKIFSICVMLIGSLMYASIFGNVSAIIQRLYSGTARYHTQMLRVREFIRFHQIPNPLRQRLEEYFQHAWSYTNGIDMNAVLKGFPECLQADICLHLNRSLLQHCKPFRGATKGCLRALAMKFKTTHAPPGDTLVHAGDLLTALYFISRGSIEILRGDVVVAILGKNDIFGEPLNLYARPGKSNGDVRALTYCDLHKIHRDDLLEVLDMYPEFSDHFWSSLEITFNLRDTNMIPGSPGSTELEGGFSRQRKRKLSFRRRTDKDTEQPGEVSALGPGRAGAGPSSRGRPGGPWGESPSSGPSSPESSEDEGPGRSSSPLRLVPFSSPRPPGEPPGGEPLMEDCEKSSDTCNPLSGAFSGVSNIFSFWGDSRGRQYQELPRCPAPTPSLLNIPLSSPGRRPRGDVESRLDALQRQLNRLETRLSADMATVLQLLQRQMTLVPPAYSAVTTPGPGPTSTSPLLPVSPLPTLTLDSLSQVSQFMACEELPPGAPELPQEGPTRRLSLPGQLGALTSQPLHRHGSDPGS

Compound	hERG current change (%, negative = inhibition) at 1uM [%]
COCCCn1c(N)c(C(=O)Nc2sc3c(c2C(=O)OC)CCCC3)c2nc3ccccc3nc21	-3.2
COc1ccccc1N(CC(=O)NCc1ccccc1)S(C)(=O)=O	13.5
C(=N\N1CCN(Cc2ccccc2)CC1)/c1ccc(-c2ccccc2)cc1	3.77
O=C(c1ccccc1C(F)(F)F)N1CCN(S(=O)(=O)c2ccccc2)CC1	21.9
Brc1ccc(C2=NC(Cc3ccccc3)CO2)cc1 (stereo not drawn)	7.15
Cc1ccc(NS(=O)(=O)c2cc(OCC(N)=O)c(C)cc2Cl)cc1	12.9
C/C(=N\NC(=O)c1ccc(CSc2nncn2C)cc1)c1ccc2ccccc2c1	7.75
O=C(NCc1cccnc1)c1cc(-c2ccco2)on1	8.42
CCOC(=O)c1ccc(N/C=C2/CCCC(C)C2=O)cc1 (stereo not drawn)	13.6
CCn1c(SCC(=O)NCCc2ccc(F)cc2)nnc1-c1cccs1	-13.5
CC(=O)Oc1ccc(C(=O)Nc2cccc(C(=O)c3ccc(C)c(C)c3)c2)cc1	-8.66
Nn1c(SCC(=O)Nc2ccc(F)cc2)nnc1C1CCCCC1	11.3
Cc1noc(C)c1COc1ccccc1C(=O)N1CCN(c2cccc(C(F)(F)F)c2)CC1	-4.25
Cc1cc(-c2ccc(C)c(S(=O)(=O)NCCC(C)N3CCCCCC3)c2)on1 (stereo not drawn)	14.2
CCc1cccc(C)c1NC(=O)Cn1nc(C)n2cccc2c1=O	18
CC(=O)c1ccc(OCC(O)CN2CCN(CC(O)COc3ccc(C(C)=O)cc3)CC2)cc1 (stereo not drawn)	-7.77
Cc1ccc(-n2nnnc2SC(C)C(=O)Nc2ccc(Cl)cn2)cc1 (stereo not drawn)	8.95
CCc1nnc(NC(=O)CCC(=O)NCc2ccccc2Cl)s1	11.1
Nc1nc(SCc2cccc(Br)c2)n[nH]1	4.66
Cc1ccc(OC(=O)Nc2ccccc2)cc1	11.7
Cc1ccc(-n2c(SCC(=O)Nc3cc(C)on3)nc3c([nH]c4ccccc43)c2=O)cc1	6.78
COc1ccccc1CN1CC(C(=O)NCc2cc(C)on2)CCC1=O (stereo not drawn)	15.9
Cc1ccccc1N(C(=O)CCC(=O)Nc1ccccn1)C(C(=O)NC(C)C)c1ccc(F)cc1 (stereo not drawn)	12.2

Compound	hERG current change (%, negative = inhibition) at 1uM [%]
COc1ccccc1N1C(=O)c2ccc(C(=O)Nc3nccs3)cc2C1=O	14.8
COc1ccccc1NC(=O)CSc1nc(N)c(C#N)cc1C#N	11.7
N#Cc1cc2c(nc1SCC1COc3ccccc3O1)CCC2 (stereo not drawn)	9
CCc1ccc(OCC(=O)Nc2ccc(-c3cc4ccccc4oc3=O)c(OC)c2)cc1	1.71
CC(C)c1ccc(/C=C/C(=O)N2CCc3ccccc3C2)cc1	9.04
COc1ccc2c(c1)c1nc3ccccc3nc1n2Cc1ccc(OC(C)C)c(OC)c1	3.75
CNC(=S)N/N=C/c1cn(Cc2c(F)cccc2Cl)c2ccccc12	10.9
CCOC(=O)N1CCN(C(=O)c2ccc3c(=O)n(CCOC)c(=O)[nH]c3c2)CC1	23.8
COc1cccc(OC)c1C(=O)OCC(=O)N(c1ccccc1)C1CCCCC1	4.7
Cl.N=C(N)Sc1nc(N2CCCCC2)nc(N2CCCCC2)n1	21.2
Fc1ccccc1/C=N/NC(=S)Nc1ccc(Cl)cc1Cl	6.93
CC(Oc1cccc(Cl)c1)C(=O)Nc1ccc([N+](=O)[O-])cn1 (stereo not drawn)	-12
CCc1c(O)c(-c2ccccc2)c(=O)n(-c2ccccn2)c1-c1ccccc1	11.4
CC1CC(C)CN(C(=O)c2ccc(CSc3nc4ccncc4[nH]3)cc2)C1 (stereo not drawn)	3.38
Nc1nnc(SCC(=O)N2CCN(Cc3ccccc3)CC2)s1	4.76
COc1ccccc1CC(=O)NCC(c1ccco1)N1CCCCC1 (stereo not drawn)	10.7
CC1=C(C)Cc2c(OC(=O)c3ccccc3)ccc(OC(=O)c3ccccc3)c2C1	9.73
CCOC(=O)c1ccc(NC(=S)N2CCSC2c2ccc(OC)cc2)cc1 (stereo not drawn)	-1.03
Cc1nn(C(C)C(=O)NCc2cccs2)c(C)c1[N+](=O)[O-] (stereo not drawn)	12.1
CN(C)S(=O)(=O)c1ccc(NC(=O)CN2C(=O)NC3(CCCC3)C2=O)cc1	9.13
COc1cc(C(=O)OCC(=O)Nc2nnc(-c3ccccc3)o2)cc(OC)c1OC	-1.46
CCOc1cc(S(=O)(=O)NCc2ccco2)c(OCC)cc1-n1cnnn1	-1.66
NC(=O)C1CCN(CC(O)COCc2ccccc2Cl)CC1 (stereo not drawn)	16.3

Compound	hERG current change (%, negative = inhibition) at 1uM [%]
Cn1nccc1NC(=O)CSCC(=O)O	15
CCOc1ccc(OCc2ccc(C(=O)O)o2)cc1	5.61
Cc1ccc(CN2C3=NCCCN3c3ccccc32)cc1.Cl	-29.6
CC(C(=O)N1CCOCC1)N1C(=O)C2C3C=CC(C4CC34)C2C1=O (stereo not drawn)	9.09
NNC(=O)Cn1c(-c2nonc2N)nc2ccccc21	11.2
O=C(Nc1cccnc1Cl)c1cccc(F)c1	4.2
CCCn1c2ccccc2c2cnn(CC(=O)NCCCN3CCCC(C)C3)c(=O)c21 (stereo not drawn)	-24
CCOc1ccc(CNS(=O)(=O)c2ccc3c(c2)CC(=O)N3C)cc1	10.9
CC(=O)Nc1ccccc1-c1nc2cc(C#N)c(C#N)cc2[nH]c1=O	0.859
CCN(CC)CCNC(=O)C(=O)NCC1OCCN1S(=O)(=O)c1ccc2c(c1)OCCO2 (stereo not drawn)	-11
C/C(=N\NC(=O)CSc1nc2ccccc2s1)c1ccco1	10.5
CCCCC(c1nnnn1Cc1ccco1)N1CCN(c2nc3ccccc3s2)CC1 (stereo not drawn)	-7.19
O=C(CN1C(=O)NC2(CCCC2)C1=O)Nc1ccccc1	10.1
CC(C)[C@H](NC(=O)c1ccccc1F)C(=O)NCCc1ccccc1	13.9
COC(=O)C1=CN(CC2CCCO2)C=C(C(=O)OC)C1c1ccccc1C(F)(F)F (stereo not drawn)	10.1
COC(=O)c1ccc(OCC(O)CN2CCc3cc(OC)c(OC)cc3C2c2ccccc2)cc1 (stereo not drawn)	-0.14
O=C(Nc1ccc2oc(=O)ccc2c1)c1ccco1	-4.43
O=C(CCC(=O)n1ncc2ccccc21)NCc1ccc(F)cc1	-11.9
Clc1ccc(-c2ncc3ccccn23)cc1	15
CCOC(=O)c1c(CN2CCN(Cc3ccccc3)CC2)n(C)c2cc(Br)c(OC)cc12	17.1
COc1cc(OC)cc(-c2oc(=O)c3cc(OC)c(OC)cc3c2C#CCCCO)c1	11.8
Brc1cc2[nH]cnc2c2ccccc12	11.6
COc1cccc(NC(=O)Nc2ccc3c(c2)nnn3C)c1	10.9

Compound	hERG current change (%, negative = inhibition) at 1uM [%]
CCS(=O)(=O)N1CCCC(C(=O)NCCCN(C)Cc2ccccc2)C1 (stereo not drawn)	1.42
CC(C)(C)NC(=S)NNC(=O)c1ccccc1Cl	5.78
COc1ccccc1-c1nc2n(n1)C(c1ccc(Cl)cc1)C(C(N)=O)=C(C)N2 (stereo not drawn)	2.15
Cc1[nH]nc2c1C(c1ccc3c(c1)OCO3)C(C#N)=C(N)O2 (stereo not drawn)	5.65
COc1ccc(CCNc2nc(N3CCCCC3)nc(N3CCCCC3)n2)cc1OC	6.28
Cc1c(NC(=O)C(C)Sc2nc3ccccc3c(=O)n2CCO)c(=O)n(-c2ccccc2)n1C (stereo not drawn)	4.78
CCOC(=O)CC(=O)CSc1nc2c(C)c(C)ccc2cc1C	-1.22
CCOC(=O)NN1C(=O)c2ccccc2NC1c1cccc(O)c1 (stereo not drawn)	0.0873
O=C(O)C1CCCCC1C(=O)NCCc1ccncc1 (stereo not drawn)	6.57
O=C(NCC(c1ccco1)N1CCN(c2ccc(F)cc2)CC1)C(=O)NC1CCCCC1 (stereo not drawn)	1.79
Cc1cc2oc(=O)cc(CN3CCN(S(=O)(=O)c4ccc5c(c4)OCCO5)CC3)c2cc1C	7.87
COc1cc(C2C(C#N)=C(N)OC3=C2C(=O)CC(C)(C)C3)cc2c1OCO2 (stereo not drawn)	3.54
Cc1cc(C(=O)NC2CCCCCCC2)ccc1[N+](=O)[O-]	13.3
COc1ccccc1N1CCN(C(=O)c2cc3sccc3n2C)CC1	6.31
COc1ccc(/C=C/C(=O)NC(=S)NNC(=O)Cc2cccs2)cc1	-8.26
CCOc1ccccc1NC(=O)C1=C(C)NC(=O)NC1c1cccs1 (stereo not drawn)	22
CCC(C#CCN1CCCCC1)(CC)OCCC#N	5.22
O=C(NCc1ccccc1F)C1CCCN(S(=O)(=O)N2CCOCC2)C1 (stereo not drawn)	28.8
CC(=O)c1ccc(NCC(=O)N2CCN(c3ccccc3)CC2)cc1	5.49
Cc1ccc(S(=O)(=O)N2CCC(C)CC2)cc1	14
Cn1c2c(c(=O)n1-c1ccccc1)CSCC2	13.3
